Experimental data as given in US20180273573A1, “INHIBITORS OF MENAQUINONE BIOSYNTHESIS” (Memorial Sloan-Kettering Cancer Center, priority 2015, published 2018).

Target: E. coli MenE (ecMenE) (Escherichia coli, UniProt P37353)
Experiment: MenE-MenB coupled assay (enzyme inhibition, catalytic parameters)
Conditions: up to a concentration of 100 μM

E. coli MenE (ecMenE), sequence (P37353 whole entry): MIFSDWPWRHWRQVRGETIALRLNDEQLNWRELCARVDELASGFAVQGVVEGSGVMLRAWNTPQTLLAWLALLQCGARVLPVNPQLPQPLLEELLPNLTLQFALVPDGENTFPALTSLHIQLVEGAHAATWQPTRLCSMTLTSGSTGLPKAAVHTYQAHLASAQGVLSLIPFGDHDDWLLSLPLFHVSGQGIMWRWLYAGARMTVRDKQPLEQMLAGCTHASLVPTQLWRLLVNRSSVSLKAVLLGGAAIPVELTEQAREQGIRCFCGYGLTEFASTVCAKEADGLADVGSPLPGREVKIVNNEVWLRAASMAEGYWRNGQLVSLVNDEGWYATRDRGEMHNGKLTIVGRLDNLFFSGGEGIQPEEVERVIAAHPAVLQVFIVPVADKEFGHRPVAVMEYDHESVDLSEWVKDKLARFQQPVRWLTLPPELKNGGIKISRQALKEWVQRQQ

Compound	inhibition of ecMenE
Nc1ncnc2c1ncn2[C@@H]1O[C@H](COS(=O)(=O)NC(=O)CCC2OC(=O)c3ccccc32)[C@@H](O)[C@H]1O (some centres unmarked) [Compound 107, 5′-O—(N-[3-(3-Oxo-1,3-dihydroisobenzofuran-1-yl)propanoyl]sulfamoyl) adenosine]	no inhibition
Nc1ncnc2c1ncn2[C@@H]1O[C@H](COS(=O)(=O)NC(=O)CCC2(O)NC(=O)c3ccccc32)[C@@H](O)[C@H]1O (some centres unmarked) [Compound 108, 5′-O—(N-[3-(1-Hydroxy-3-oxoisoindolin-1-yl)propanoyl]sulfamoyl) adenosine]	no inhibition
